Experimental data as given in paper PMC4336329 (PLoS ONE, 2015).
About 14,000 (4.5%) of roughly 310,000 compounds showed an effect of 50% or more. Effects have a minus sign here. The list shows a part of the results.

These compounds were tested against human ether-à-go-go-related gene (hERG) potassium channel (human, UniProt Q12809) (assay: primary screen, population patch clamp on CHO cells stably expressing hERG).
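Further: peak tail current of the secondary pulse compared with the same well before compound.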

Sequence of human ether-à-go-go-related gene (hERG) potassium channel (Q12809 whole entry, looked up): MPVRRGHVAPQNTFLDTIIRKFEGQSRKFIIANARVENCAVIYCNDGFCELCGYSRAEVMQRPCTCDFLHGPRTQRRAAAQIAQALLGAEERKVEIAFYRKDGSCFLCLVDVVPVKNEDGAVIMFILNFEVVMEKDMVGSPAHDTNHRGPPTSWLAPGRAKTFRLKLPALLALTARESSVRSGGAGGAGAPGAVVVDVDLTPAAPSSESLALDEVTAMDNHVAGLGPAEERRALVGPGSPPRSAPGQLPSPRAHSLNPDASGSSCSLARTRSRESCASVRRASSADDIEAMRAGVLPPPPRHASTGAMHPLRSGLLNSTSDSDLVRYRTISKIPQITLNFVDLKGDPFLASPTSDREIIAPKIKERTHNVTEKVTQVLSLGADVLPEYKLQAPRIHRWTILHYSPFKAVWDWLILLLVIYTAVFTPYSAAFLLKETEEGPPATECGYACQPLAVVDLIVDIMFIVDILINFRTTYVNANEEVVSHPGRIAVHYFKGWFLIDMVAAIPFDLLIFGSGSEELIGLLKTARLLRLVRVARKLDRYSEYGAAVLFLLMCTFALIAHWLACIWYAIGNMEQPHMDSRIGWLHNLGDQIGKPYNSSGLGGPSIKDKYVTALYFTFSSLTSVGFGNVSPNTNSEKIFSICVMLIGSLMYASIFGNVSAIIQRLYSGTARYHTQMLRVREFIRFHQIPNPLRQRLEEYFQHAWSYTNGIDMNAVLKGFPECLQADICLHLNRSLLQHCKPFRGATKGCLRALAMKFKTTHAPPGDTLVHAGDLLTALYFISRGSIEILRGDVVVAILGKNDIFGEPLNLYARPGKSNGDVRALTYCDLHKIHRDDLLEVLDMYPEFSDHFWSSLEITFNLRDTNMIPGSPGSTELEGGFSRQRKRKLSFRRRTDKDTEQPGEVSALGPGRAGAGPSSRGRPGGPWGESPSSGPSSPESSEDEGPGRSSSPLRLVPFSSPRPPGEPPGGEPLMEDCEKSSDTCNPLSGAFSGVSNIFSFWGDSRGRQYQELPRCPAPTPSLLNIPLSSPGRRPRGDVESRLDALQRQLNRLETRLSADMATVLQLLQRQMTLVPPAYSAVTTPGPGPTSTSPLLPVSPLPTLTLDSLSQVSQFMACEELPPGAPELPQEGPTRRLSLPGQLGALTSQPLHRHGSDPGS

Structure (SMILES) | hERG current change (%, negative = inhibition) at 10uM [%]
CC(C)n1cc(CN2CCC(n3nccc3NC(=O)CCCc3ccccc3)CC2)cn1 | -26
Cc1cc(C(=O)O)ccc1NCc1ccncc1 | 18.4
O=C(CN(Cc1cccs1)C(=O)CCC(=O)Nc1ccccn1)NCc1ccccc1 | -19.9
CCOc1ccc(NC(=O)C2CCCN(S(=O)(=O)c3c(C)noc3C)C2)cc1 (stereo not drawn) | 10.8
COc1ccc(C(=O)c2c3ccc(OC)cc3[n+]([O-])n2CCCC(N)=O)cc1 | -34.9
CCOCCCNC(=O)c1ccc2c(=O)n(Cc3ccc(OC)cc3)c(=O)[nH]c2c1 | 29.8
C=CCn1c(SCc2cc(=O)n3cc(C)ccc3n2)nnc1-c1ccc(F)cc1 | -45.1
CCCCCCCCC1CC(C(=O)Nc2ccccc2)C(=O)O1 (stereo not drawn) | 6.07
Cn1c(=O)c2cc(S(=O)(=O)NC(C(=O)NCc3ccccn3)c3ccccc3)ccc2n(C)c1=O (stereo not drawn) | 8.31
NC(=O)CSc1nc2ccccc2c(=O)n1Cc1ccccc1 | -7.52
CCS(=O)(=O)N1CCCC(C(=O)N2CCC3(CC2)OCCO3)C1 (stereo not drawn) | 7.18
CSC(=S)N(C)C1CCS(=O)(=O)C1 (stereo not drawn) | 5.99
Cn1c(=O)c(C(=O)c2ccccc2)c(O)c2ccccc21 | 12.8
O=C(Nc1ccccc1)c1ccc(-c2ccccc2)s1 | 74.9
COc1cccc(C2(O)C(=O)Nc3ccccc32)c1 (stereo not drawn) | 10.5
CCOc1ccccc1N1CCN(C(=O)c2cc3c(C)cc(C)cc3[nH]2)CC1 | -4.74
O=C(c1ccc([N+](=O)[O-])o1)N1CCN(c2nc3c(F)cc(F)cc3s2)CC1 | -54.7
COc1ccc(S(=O)(=O)N(C)CC(=O)N2CCOCC2)cc1Cl | 10.2
COc1ccc(C(C(=O)NCC2CCCO2)N(C(=O)CNC(=O)c2cccs2)c2ccccc2C)cc1OC (stereo not drawn) | -1.91
O=C(C1=C(O)C(=O)N(CCN2CCOCC2)C1c1ccco1)c1cc2ccccc2o1 (stereo not drawn) | -3.97
CCOC(=O)c1cc(C#N)c(SC(C)C(=O)NC2CCCCC2)nc1C (stereo not drawn) | 12.8
CCCOc1ccc(C2C(C(=O)c3ccco3)=C(O)C(=O)N2CCN2CCOCC2)cc1OC (stereo not drawn) | 18.5

Structure (SMILES) | hERG current change (%, negative = inhibition) at 10uM [%]
CC(=O)Oc1cc(OC(C)=O)c2c(C)cc(=O)oc2c1 | 14.6
Cc1ccc(CS(=O)(=O)CCC(=O)N2CCC3(CC2)OCCO3)cc1 | -2.79
C=CCSc1nnc(-c2cnn(-c3ccccc3)c2-n2cccc2)n1C | -22
CCCCOc1ccc(S(=O)(=O)Nc2ccc(NC(C)=O)cc2)cc1 | -13.7
CCc1ccc[n+](-c2[nH]c(=O)sc2/C=N/NC([S-])=Nc2ccccc2)c1 | 5.39
Cc1cc(C(=O)Nc2cccnc2)cs1 | 0.642
O=C(NNc1ccccn1)c1ccccc1CC[N+](=O)[O-] | 13.3
CCCNc1ccc(S(=O)(=O)N(C(C)C)C(C)C)cn1 | -22.2
CC(=O)Nc1sc2c(c1C(c1cccs1)N1CCOCC1)CCCC2 (stereo not drawn) | 11.5
COc1ccc(C(=O)NNC(=O)CSc2nnc(COc3ccc4ccccc4c3)n2C)cc1 | 5.45
CCN(CC)S(=O)(=O)c1cccc(C(=O)Nc2ccc3c(c2)OCO3)c1 | -23.2
Cc1ccc(CNc2cc(C(=O)O)ccc2C)s1 | 19.2
O=C(CCC(=O)OCC(=O)c1ccc(Br)cc1)NC1CCCCC1 | -4.23
COCCCn1c(=O)/c(=C\c2ccccc2OC(F)F)s/c1=C(/C#N)C(=O)NCCOC | -11.5
COCCCn1c(SCC(=O)NC2CCCCC2)nnc1-c1ccncc1 | 19.8
O=C(NCc1ccccc1)c1cccc(F)c1F | 17.3
O=C(CN1C(=O)NC2(CCc3ccccc3C2)C1=O)Nc1ccc(Cl)cc1F (stereo not drawn) | 6.79
COc1cc(C(=O)NCc2ccc(F)cc2)cc(Cl)c1OC | 17
CCOc1ccc(C2SCC(=O)Nc3c2c(C)nn3C2CCOC(C)(C)C2)cc1 (stereo not drawn) | 6.41
CC[N+]1=CN(c2ccccc2)C(C)=CC1(C)C.[I-] | 12.3
O=C(Nc1ccc(N2C(=O)C3C4C=CC(C4)C3C2=O)cc1)Nc1nncs1 (stereo not drawn) | -7.52
O=C(O)/C(=C1\OC(=O)c2ccccc21)c1ccccc1 | -3.5

Structure (SMILES) | hERG current change (%, negative = inhibition) at 10uM [%]
Cc1nonc1CN(C)C(=O)CC1C(=O)NCCN1Cc1cccc(C(F)(F)F)c1 (stereo not drawn) | 1.99
O=C(CNc1ccc2ccccc2c1)NNC1=NCCC1 | 12
Cc1c(C(=O)O)cccc1N1C(=O)Nc2ccccc2N1O | 46.2
COc1ccc(-c2nc3n(c2C)Cc2ccccc2-3)cc1 | -19.1
CC1=C(C(=O)O)N2C(=O)C(NC(=O)c3nn(C)cc3Cl)C2SC1 (stereo not drawn) | 12.3
CC(=O)N1CCc2cc(S(=O)(=O)CCC(=O)NCCc3ccc(Cl)cc3)ccc21 | -7.04
CC(C)[C@H](NC(=O)C1CCN(S(=O)(=O)c2ccccc2)CC1)C(=O)NCc1ccco1 | 13.8
Cc1[nH]c2ccccc2c1C(=O)/C=C/c1ccccc1 | 8.96
Cc1ccc(-c2nnc(Nc3ccc4c(c3)nc(C)n4C)c3ccccc23)cc1 | 5.03
COc1ccc(NC(=O)CCCSc2ccccc2)cc1S(N)(=O)=O | -6.03
Cc1nn(CC2CC2)c(=O)n1-c1ccc(F)cc1 | 13.4
CSc1nc2c(c(=O)[nH]c(=O)n2C)n1Cc1ccccc1Cl | 3.4
COC(=O)c1ccc(CNC(=O)COC(=O)C2CC3C=CC2C3)cc1 (stereo not drawn) | 11.2
CNC(=O)c1ccccc1-c1cn(C)c2ccccc2c1=O | 26.3
COc1ccccc1C(=O)Nc1nc(-c2cccs2)c(NC(C)=O)s1 | -7.05
Brc1nc(Br)n(Cc2ccccc2)n1 | 28.4
Cc1ccc(C)c(C(=O)COC(=O)C2CCN(c3ccc(C(F)(F)F)cn3)CC2)c1 | -3.15
CCOc1cccc(C(=O)NC(=S)Nc2ccc3c(c2)OCCO3)c1 | 7.57
CCC1=C2CC[C@H]3C(=O)N(CC)C(=O)[C@H]3[C@H]2[C@@]2(Cc3ccccc3)C(=NCCOC)OC(=O)N2C1=O | 10
COc1ccc(C(c2nnnn2C2CCCC2)N2CCC(C)CC2)cc1.Cl (stereo not drawn) | -9.25
O=C(Cc1cccs1)N1CCN(S(=O)(=O)c2cc(Cl)ccc2Cl)CC1 | -48.4
CCOC(=O)N1CCN(C(=O)CSCC(=O)Nc2nc(-c3ccc(-c4ccccc4)cc3)cs2)CC1 | -11.9

Structure (SMILES) | hERG current change (%, negative = inhibition) at 10uM [%]
Cc1n[nH]c(=O)c2c(NC(=O)CSc3nnc(-c4ccco4)n3C)oc(C)c12 | 4.76
COc1cccc(OCCCN2CCCCCC2)c1.O=C(O)C(=O)O | -37.8
O=C(COc1cccc2c1CCNC2=O)NC1CCCCC1 | -13.7
COc1ccc(Cc2nc(C(=O)NCc3ccccc3OC)cs2)cc1 | -5.16
O=c1[nH]ncc(N/N=C\c2cccs2)c1Cl | 4.14
CN(C)C(CNC(C(=O)Nc1ccc([N+](=O)[O-])cc1Br)c1ccccc1)c1ccccc1 (stereo not drawn) | -66.5
CC1(C)CC(=O)C2=C(C1)Nc1ncnn1C2c1cccs1 (stereo not drawn) | -1.14
O=C(NCC(c1ccco1)N1CCc2ccccc2C1)c1ccc(Cl)c([N+](=O)[O-])c1 (stereo not drawn) | -55.5
O=C(C1CC1)N1CCN(S(=O)(=O)c2ccc3c(c2)OCCO3)CC1 | 2.65
O=c1c2cc(Br)ccc2nc(-c2cccc(Cl)c2)n1O | 18.7
CCOc1ccc(C2Nc3ccc4ccccc4c3-c3c2c(=O)oc2ccccc32)cc1 (stereo not drawn) | 0.825
COC(=O)[C@@H]1C[C@@]2(O)[C@@H](O)[C@@H](O)[C@@H](O)C[C@H]2N1Cc1ccc(Cl)cc1 | 11.6
N#Cc1ccc2c(c1)NC(=O)C1CCCN21 (stereo not drawn) | -46.9
Cc1c(NC(=O)c2noc3c2CCc2ccccc2-3)c(=O)n(-c2ccccc2)n1C | -52.9
Cc1ccc(-c2cc([C@H]3[C@@H]4C=CCC[C@@]4(C)C(=O)N3Cc3ccccc3)ccc2F)cc1 | 8.75
O=C(/C=C/c1ccc(OCc2cccc(Cl)c2)cc1)N1CCOCC1 | -9.61
O=C(CSC1=NS(=O)(=O)c2cc(F)ccc2N1)Nc1ccc(F)cc1 | 10.5
Cc1cccc(N(C(=O)c2snc(C(N)=O)c2N)C(C(=O)NC2CCCC2)c2ccncc2)c1 (stereo not drawn) | 6.65
C=CCn1c(=NC(=O)c2ccco2)sc2cc(C(=O)OCC)ccc21 | -3.33
COC(=O)CSc1n[nH]c(-c2cccnc2)n1 | 2.8
O=C(/C=C/c1ccco1)c1ccc(NC(=O)C23CC4CC(CC(C4)C2)C3)cc1 | 22.5
